# The supplement of paper PMC8728848
# The other results are listed elsewhere or left out.
# B1: LecB PA14 (Pseudomonas aeruginosa) (protein)
# chain: MATQGVFTLPANTQFGVTAFANSAGTQTVNVQVNNETVATFTGQSTNNAIIGSKVLNSGGGGKVQILVSVNGRSSDLVSAQVILANELNFALVGSEDSTDNDYNDAVVVINWPLG
# What was measured:
# Assay in all cases: glycan array binding signal (z-score within array); higher = stronger binding
# Conditions in all cases: glycan notation: IUPAC condensed, linker removed
# [1] = biological target: Gal(b1-4)GlcNAc(b1-3)Gal(b1-4)GlcNAc(b1-2)[Gal(b1-4)GlcNAc(b1-3)Gal(b1-4)GlcNAc(b1-6)]Man(a1-6)[Gal(b1-4)GlcNAc(b1-3)Gal(b1-4)GlcNAc(b1-2)Man(a1-3)]Man(b1-4)GlcNAc(b1-4)GlcNAc
# In short: (§1)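 From the Consortium for Functional Glycomics database, 3228 arrays were curated, keeping only those whose protein sequence was available. Binding is given as a within-array Z-score averaged across arrays sharing a protein sequence and across linkers. Negative Z-scores can be read as non-binding.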
# [2] = biological target: Gal(b1-4)GlcNAc(b1-3)Gal(b1-4)GlcNAc(b1-2)[Gal(b1-4)GlcNAc(b1-3)Gal(b1-4)GlcNAc(b1-6)]Man(a1-6)[Gal(b1-4)GlcNAc(b1-3)Gal(b1-4)GlcNAc(b1-2)Man(a1-3)]Man(b1-4)GlcNAc(b1-4)[Fuc(a1-6)]GlcNAc
# In short: as §1
# [3] = biological target: Gal(b1-4)GlcNAc(b1-3)Gal(b1-4)GlcNAc(b1-3)Gal(b1-4)GlcNAc
# In short: as §1
# [4] = biological target: Gal(b1-4)GlcNAc(b1-3)Gal(b1-4)GlcNAc(b1-3)Gal(b1-4)GlcNAc(b1-2)Man(a1-3)[Gal(b1-4)GlcNAc(b1-3)Gal(b1-4)GlcNAc(b1-3)Gal(b1-4)GlcNAc(b1-2)Man(a1-6)]Man(b1-4)GlcNAc(b1-4)GlcNAc
# In short: as §1
# [5] = biological target: Gal(b1-4)GlcNAc(b1-3)Gal(b1-4)GlcNAc(b1-3)Gal(b1-4)GlcNAc(b1-2)Man(a1-3)[Gal(b1-4)GlcNAc(b1-3)Gal(b1-4)GlcNAc(b1-3)Gal(b1-4)GlcNAc(b1-2)Man(a1-6)]Man(b1-4)GlcNAc(b1-4)[Fuc(a1-6)]GlcNAc
# In short: as §1
# [6] = biological target: Gal(b1-4)GlcNAc(b1-3)Gal(b1-4)GlcNAc(b1-3)Gal(b1-4)GlcNAc(b1-2)[Gal(b1-4)GlcNAc(b1-3)Gal(b1-4)GlcNAc(b1-3)Gal(b1-4)GlcNAc(b1-6)]Man(a1-6)[Gal(b1-4)GlcNAc(b1-3)Gal(b1-4)GlcNAc(b1-3)Gal(b1-4)GlcNAc(b1-2)Man(a1-3)]Man(b1-4)GlcNAc(b1-4)[Fuc(a1-6)]GlcNAc
# In short: as §1
# [7] = biological target: Gal(b1-4)GlcNAc(b1-3)Gal(b1-4)GlcNAc(b1-3)Gal(b1-4)GlcNAc(b1-3)Gal(b1-4)GlcNAc(b1-2)Man(a1-3)[Gal(b1-4)GlcNAc(b1-3)Gal(b1-4)GlcNAc(b1-3)Gal(b1-4)GlcNAc(b1-3)Gal(b1-4)GlcNAc(b1-2)Man(a1-6)]Man(b1-4)GlcNAc(b1-4)GlcNAc
# In short: as §1
# [8] = biological target: Gal(b1-4)GlcNAc(b1-3)Gal(b1-4)GlcNAc(b1-3)Gal(b1-4)GlcNAc(b1-3)Gal(b1-4)GlcNAc(b1-2)Man(a1-3)[Gal(b1-4)GlcNAc(b1-3)Gal(b1-4)GlcNAc(b1-3)Gal(b1-4)GlcNAc(b1-3)Gal(b1-4)GlcNAc(b1-2)Man(a1-6)]Man(b1-4)GlcNAc(b1-4)[Fuc(a1-6)]GlcNAc
# In short: as §1
# [9] = biological target: Gal(b1-4)GlcNAc(b1-3)Gal(b1-4)GlcNAc(b1-3)Gal(b1-4)GlcNAc(b1-3)Gal(b1-4)GlcNAc(b1-2)[Gal(b1-4)GlcNAc(b1-3)Gal(b1-4)GlcNAc(b1-3)Gal(b1-4)GlcNAc(b1-3)Gal(b1-4)GlcNAc(b1-6)]Man(a1-6)[Gal(b1-4)GlcNAc(b1-3)Gal(b1-4)GlcNAc(b1-3)Gal(b1-4)GlcNAc(b1-3)Gal(b1-4)GlcNAc(b1-2)Man(a1-3)]Man(b1-4)GlcNAc(b1-4)[Fuc(a1-6)]GlcNAc
# In short: as §1
# [10] = biological target: Gal(b1-4)GlcNAc(b1-3)Gal(b1-4)GlcNAc(b1-3)Gal(b1-4)GlcNAc(b1-3)Gal(b1-4)GlcNAc(b1-3)Gal(b1-4)GlcNAc(b1-2)Man(a1-3)[Gal(b1-4)GlcNAc(b1-3)Gal(b1-4)GlcNAc(b1-3)Gal(b1-4)GlcNAc(b1-3)Gal(b1-4)GlcNAc(b1-3)Gal(b1-4)GlcNAc(b1-2)Man(a1-6)]Man(b1-4)GlcNAc(b1-4)GlcNAc
# In short: as §1
# [11] = biological target: Gal(b1-4)GlcNAc(b1-3)Gal(b1-4)GlcNAc(b1-3)Gal(b1-4)GlcNAc(b1-3)Gal(b1-4)GlcNAc(b1-3)Gal(b1-4)GlcNAc(b1-2)Man(a1-3)[Gal(b1-4)GlcNAc(b1-3)Gal(b1-4)GlcNAc(b1-3)Gal(b1-4)GlcNAc(b1-3)Gal(b1-4)GlcNAc(b1-3)Gal(b1-4)GlcNAc(b1-2)Man(a1-6)]Man(b1-4)GlcNAc(b1-4)[Fuc(a1-6)]GlcNAc
# In short: as §1
# [12] = biological target: Gal(b1-4)GlcNAc(b1-3)Gal(b1-4)GlcNAc(b1-3)Gal(b1-4)GlcNAc(b1-3)Gal(b1-4)GlcNAc(b1-3)Gal(b1-4)GlcNAc(b1-2)[Gal(b1-4)GlcNAc(b1-3)Gal(b1-4)GlcNAc(b1-3)Gal(b1-4)GlcNAc(b1-3)Gal(b1-4)GlcNAc(b1-3)Gal(b1-4)GlcNAc(b1-6)]Man(a1-6)[Gal(b1-4)GlcNAc(b1-3)Gal(b1-4)GlcNAc(b1-3)Gal(b1-4)GlcNAc(b1-3)Gal(b1-4)GlcNAc(b1-3)Gal(b1-4)GlcNAc(b1-2)Man(a1-3)]Man(b1-4)GlcNAc(b1-4)[Fuc(a1-6)]GlcNAc
# In short: as §1
# [13] = biological target: Gal(b1-4)GlcNAc(b1-3)Gal(b1-4)GlcNAc(b1-3)Gal(b1-4)GlcNAc(b1-3)Gal(b1-4)GlcNAc(b1-3)Gal(b1-4)GlcNAc(b1-3)Gal(b1-4)GlcNAc(b1-2)Man(a1-3)[Gal(b1-4)GlcNAc(b1-3)Gal(b1-4)GlcNAc(b1-3)Gal(b1-4)GlcNAc(b1-3)Gal(b1-4)GlcNAc(b1-3)Gal(b1-4)GlcNAc(b1-3)Gal(b1-4)GlcNAc(b1-2)Man(a1-6)]Man(b1-4)GlcNAc(b1-4)GlcNAc
# In short: as §1
# [14] = biological target: Gal(b1-4)GlcNAc(b1-3)Gal(b1-4)GlcNAc(b1-3)GalNAc
# In short: as §1
# [15] = biological target: Gal(b1-4)GlcNAc(b1-3)Gal(b1-4)GlcNAc(b1-3)[Gal(b1-4)GlcNAc(b1-3)Gal(b1-4)GlcNAc(b1-6)]GalNAc
# In short: as §1
# [16] = biological target: Gal(b1-4)GlcNAc(b1-3)Gal(b1-4)GlcNAc(b1-6)[Gal(b1-3)]GalNAc
# In short: as §1
# [17] = biological target: Gal(b1-4)GlcNAc(b1-3)Gal(b1-4)[Fuc(a1-3)]GlcNAc(b1-3)Gal(b1-4)[Fuc(a1-3)]GlcNAc
# In short: as §1
# [18] = biological target: Gal(b1-4)GlcNAc(b1-3)GalNAc
# In short: as §1
# [19] = biological target: Gal(b1-4)GlcNAc(b1-3)[Fuc(a1-3)GlcNAc(b1-6)]Gal(b1-4)Glc
# In short: as §1
# [20] = biological target: Gal(b1-4)GlcNAc(b1-3)[Gal(b1-4)GlcNAc(b1-6)]Gal(b1-4)GlcNAc
# In short: as §1
# [21] = biological target: Gal(b1-4)GlcNAc(b1-3)[GlcNAc(b1-6)]Gal(b1-4)GlcNAc
# In short: as §1
# [22] = biological target: Gal(b1-4)GlcNAc(b1-6)Gal(b1-4)GlcNAc
# In short: as §1
# [23] = biological target: Gal(b1-4)GlcNAc(b1-6)GalNAc
# In short: as §1
# [24] = biological target: Gal(b1-4)GlcNAc(b1-6)[Gal(b1-3)]GalNAc
# In short: as §1
# [25] = biological target: Gal(b1-4)GlcNAc(b1-6)[Gal(b1-4)GlcNAc(b1-3)]GalNAc
# In short: as §1
# Gal(b1-4)GlcNAc6P = biological target: Gal(b1-4)GlcNAc6P
# In short: as §1
# Gal(b1-6)Gal = biological target: Gal(b1-6)Gal
# In short: as §1
# Gal3S(b1-3)GalNAc = biological target: Gal3S(b1-3)GalNAc
# In short: as §1
# Gal3S(b1-3)GlcNAc = biological target: Gal3S(b1-3)GlcNAc
# In short: as §1
# [26] = biological target: Gal3S(b1-3)[Fuc(a1-4)]GlcNAc
# In short: as §1
# Gal3S(b1-4)Glc = biological target: Gal3S(b1-4)Glc
# In short: as §1
# Gal3S(b1-4)Glc6S = biological target: Gal3S(b1-4)Glc6S
# In short: as §1
# Gal3S(b1-4)GlcNAc = biological target: Gal3S(b1-4)GlcNAc
# In short: as §1
# [27] = biological target: Gal3S(b1-4)[Fuc(a1-3)]Glc6S
# In short: as §1
# [28] = biological target: Gal3S(b1-4)[Fuc(a1-3)]GlcNAc
# In short: as §1
# [29] = biological target: Gal3S(b1-4)[Fuc(a1-3)]GlcNAc6S
# In short: as §1
# Gal3S4S(b1-4)GlcNAc = biological target: Gal3S4S(b1-4)GlcNAc
# In short: as §1
# Gal3S6S(b1-4)GlcNAc = biological target: Gal3S6S(b1-4)GlcNAc
# In short: as §1
# Gal3S6S(b1-4)GlcNAc6S = biological target: Gal3S6S(b1-4)GlcNAc6S
# In short: as §1
# Gal4S(b1-4)GlcNAc = biological target: Gal4S(b1-4)GlcNAc
# In short: as §1
# Gal4S6S(b1-4)GlcNAc = biological target: Gal4S6S(b1-4)GlcNAc
# In short: as §1
# Gal6P(b1-4)GlcNAc = biological target: Gal6P(b1-4)GlcNAc
# In short: as §1
# Gal6S(b1-3)GlcNAc = biological target: Gal6S(b1-3)GlcNAc
# In short: as §1
# Gal6S(b1-3)GlcNAc6S = biological target: Gal6S(b1-3)GlcNAc6S
# In short: as §1
# Gal6S(b1-4)Glc = biological target: Gal6S(b1-4)Glc
# In short: as §1
binder,measurement,setting,value
B1,glycan array binding signal (z-score),[1],-0.236
same,glycan array binding signal (z-score),[2],0.576
same,glycan array binding signal (z-score),[3],-0.48
same,glycan array binding signal (z-score),[4],-0.378
same,glycan array binding signal (z-score),[5],1.02
same,glycan array binding signal (z-score),[6],0.253
same,glycan array binding signal (z-score),[7],-0.03
same,glycan array binding signal (z-score),[8],0.621
same,glycan array binding signal (z-score),[9],0.632
same,glycan array binding signal (z-score),[10],0.285
same,glycan array binding signal (z-score),[11],0.294
same,glycan array binding signal (z-score),[12],-0.587
same,glycan array binding signal (z-score),[13],-0.092
same,glycan array binding signal (z-score),[14],0.121
same,glycan array binding signal (z-score),[15],-0.666
same,glycan array binding signal (z-score),[16],-0.175
same,glycan array binding signal (z-score),[17],0.462
same,glycan array binding signal (z-score),[18],-0.33
same,glycan array binding signal (z-score),[19],0.632
same,glycan array binding signal (z-score),[20],0.444
same,glycan array binding signal (z-score),[21],-0.32
same,glycan array binding signal (z-score),[22],0.059
same,glycan array binding signal (z-score),[23],-0.665
same,glycan array binding signal (z-score),[24],-0.065
same,glycan array binding signal (z-score),[25],-0.32
same,glycan array binding signal (z-score),Gal(b1-4)GlcNAc6P,-0.014
same,glycan array binding signal (z-score),Gal(b1-6)Gal,-0.776
same,glycan array binding signal (z-score),Gal3S(b1-3)GalNAc,0.962
same,glycan array binding signal (z-score),Gal3S(b1-3)GlcNAc,-0.675
same,glycan array binding signal (z-score),[26],2.03
same,glycan array binding signal (z-score),Gal3S(b1-4)Glc,-0.45
same,glycan array binding signal (z-score),Gal3S(b1-4)Glc6S,-0.564
same,glycan array binding signal (z-score),Gal3S(b1-4)GlcNAc,-0.68
same,glycan array binding signal (z-score),[27],0.186
same,glycan array binding signal (z-score),[28],0.8
same,glycan array binding signal (z-score),[29],0.33
same,glycan array binding signal (z-score),Gal3S4S(b1-4)GlcNAc,-0.603
same,glycan array binding signal (z-score),Gal3S6S(b1-4)GlcNAc,-0.745
same,glycan array binding signal (z-score),Gal3S6S(b1-4)GlcNAc6S,-0.65
same,glycan array binding signal (z-score),Gal4S(b1-4)GlcNAc,-0.214
same,glycan array binding signal (z-score),Gal4S6S(b1-4)GlcNAc,-0.457
same,glycan array binding signal (z-score),Gal6P(b1-4)GlcNAc,-0.707
same,glycan array binding signal (z-score),Gal6S(b1-3)GlcNAc,-0.543
same,glycan array binding signal (z-score),Gal6S(b1-3)GlcNAc6S,-0.296
same,glycan array binding signal (z-score),Gal6S(b1-4)Glc,-0.626
